Some of the results follow.
These sequences were tested on PfHDP1 homeodomain (GST-tagged) (assay: gcPBM binding intensity (ln(normalized median fluorescence intensity)); higher = stronger DNA binding).
Method in brief: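 Probes on an Agilent 4 × 180k array were primer-extended, double-stranded and 36 bp long, taken from intergenic genomic regions, with negative controls added. GST-tagged P. falciparum DNA-binding domains from E. coli, about 25 μg on average, were applied to the array for 1 h in 1× PBS containing 1% milk, 0.2 mg/ml BSA, 0.5% salmon testes DNA and 0.03% Triton X-100. Binding intensity, obtained after Alexa488 anti-GST antibody detection and a 488 nm scan, is the highest Masliner-normalised natural-log median intensity across replicate spots of either probe orientation.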

Sequence	gcPBM binding intensity (ln)
TATACATATTATATATGTACACATATTATATGTATA [XGTACX_site5851]	6.39
TAACATGATATATAATGTACATATAAGATATTTATA [XGTACX_site4383]	6.72
TTTAAAAAAAAAAAAAAAAATTAAATGAATTATTAA [CACACA_negctrl_site1121]	5.74
ATGAATTATATATTATGTACATATAATTAAAATATA [XGTACX_site7140]	6.32
ATACAAAAAAGAAGGACACACAGAAGTAACATGTTA [CACACA_site3074]	6.79
CGTGGGAGCGGACACACACACACACCCATATATATA [CACACA_site4340]	6.78
AAAAAAATATATATATATATATATATATATATATAT [TGCATGCA_negctrl_site7]	9.41
AAATATAATAATATATGTACATATATATATATATAT [XGTACX_site6980]	9.24
ATATTTTGTAATATTTGTACATATATTATACATATA [XGTACX_site963]	6.32
AATAATGTATAATGATGTACAAAAAAGGAAGACATA [XGTACX_site2474]	7.43
TTTTTTTTGCGTACAGTGCAAATTTATTTACTATTC	8.98
AAAAAAAAAAAAAAAAAAAAAAAAAAAAAAAAAAAT [CACACA_negctrl_site882]	7.45
AAATTAAATAAATTTACACACTAAAAGTTACCTATA [CACACA_site6623]	6.03
TTTGTTATTTATTAGTGTACAAAAAAGCATTTCAAA [XGTACX_site8729]	6.39
TATGAAAATTAAGTTTGTACACAAGTGGAAAAAAAA [XGTACX_site6129]	6.54
TACATTTATAATAATACACACATAAATTTACATTTT [CACACA_site3463]	6.73
ATATAAAGAAATTAATTTTTCAACAATAAAAATATA [CACACA_negctrl_site1262]	6.16
TTAAAAGATATTACATGTACATATTCAATATATGTA [XGTACX_site5895]	6.13
ACAAATAAATAAAAATGTACAAATGAATACATCTTA [XGTACX_site3780]	5.94
TTTTTTTAAAAAAACAAAAAAAAAAAAAATATAAAA [TGCATGCA_negctrl_site511]	5.88
TACATCGGTATATAAACACACAACAAAAATGCTTAC [CACACA_site5983]	6.62
AAAATAATTAAAAAAAGTACTCGTAATATAAATATA [XGTACX_site4967]	6.52

Sequence	gcPBM binding intensity (ln)
AGGTGTATCATAAAATGTACATACATACATACATAA [XGTACX_site4479]	6.23
TATTATTATTTTTTATGTACTAACGACAAAAATATT [XGTACX_site252]	6.27
TTGTAATTCATTCAAATATAAAATAAATAAATATGA [CACACA_negctrl_site349]	6.04
AAAATGTGCTTTTCAGTGCAATTTTTTTTGTAATAA [GTGCAC_site9566]	9.37
TATGTAAAAAGAGAAAAAAAAAAGAACGATAATTTC [CACACA_negctrl_site946]	5.96
ATATAAGAATTTAAGAGTACATTCACTTCAAATTTA [XGTACX_site2115]	5.83
TATTCTATAAATATATTTTTTTAATTTTTTATTTTA [CACACA_negctrl_site307]	6.27
AAATTTAATTTTATATCACACATTAAATTTTAATGG [CACACA_site4251]	6.49
AAAAAAAAAAAAAAAGGTACAGTAAAAAATTCCTCT [XGTACX_site5947]	6.46
ATATAATATATTTTCACACATATTTTATGATGATAA [CACACA_site5614]	6.45
ATAACATAACATAATACACACATATAAAAAAGAAAT [CACACA_site3028]	7.34
TTTTTTTTTTTTTTTTTTTTACGATATATTTTAAAA [XGTACX_negctrl_site401]	6.49
TTTTTACTTATTTATTATGTACAATTTCTTCTTTCT [CACACA_negctrl_site264]	6.15
TAGATCATAACAATTGCACACATTTGCATTTATATT [CACACA_site1562]	10.1
TTCAAAAAATATATCTGTACAAATTATGTAGATGAA [XGTACX_site5522]	6.5
AAGATAAAAATATGCACACATATATATATATATATA [CACACA_site404]	9.91
TAATTAAGAATATATAGTACATAGTTGAAAAACTTT [XGTACX_site6359]	6.08
AATAGTTAAATACATACATGCATTCATATAATATAT [TGCATGCA_site433]	6.53
AACGAAAACACTACGTGTACCAAACGTCCTACCAAC [XGTACX_site257]	6.35
AATGTACGCATATACACACACATAAATAGATACGTA [CACACA_site3406]	6.59
GACCCCATATACATATGTACATACATAATATATATA [XGTACX_site1817]	7.25
TTTTTATAACAGCTTAGTACATATAAGAATTCTTGC [XGTACX_site5890]	6.53

Reference: the supplement of paper PMC11417369
